Here are results for one protein from PMC11844742, “Structural basis of aquaporin-4 autoantibody binding in neuromyelitis optica” (Science Advances, 2025).

This series concerns the molecule itself. Nature of the series: cryo-EM structure; AQP4 M1 alone in MSP1E3D1 nanodiscs, 0.3 uM; C4 symmetry imposed; 2.1 A.

B1: human aquaporin-4 (AQP4) isoform M1, full length, tetramer in MSP1E3D1 lipid nanodiscs (natural protein)
chain: not shown
notes: aquaporin-4, human, isoform M1, full length ([…]); synthesized gene in pPICZ; a thrombin cleavage site lies between the tags and the protein; Homo-tetramer embedded in a nanodisc (soybean polar lipids, MSP1E3D1); for BLI the MSP 1E3D1 was biotinylated; also called AQP4 M1; M1 tetramer; not shown: 8xHis, N-terminal, kept
Take B1: the “stoichiometry N” value amounted to 4.
